# Out of some 94,000 compounds screened, about 6,200 (6.6%) were called active. Inconclusive results, whose numbers are uncertain, are shown with a selection of clear calls. Calls come from the whole dose curve; as a rule, active = well fitted inhibition curve with a large enough effect; inconclusive = small, poorly fitted or top-dose-only effect; inactive = flat fitted curve, though single readings scatter. A potency beside an inconclusive call is a rough fit, not a confirmed value.
# Assay: Cytotoxic Profiling in HEK 293 Cell Line of Diverse Libraries Using Quantitative High-Throughput Screening; note: nearly all actives have a fitted effect of over 60% in size
# Settings: HEK 293 viability, ATP luminescence (CellTiter-Glo), 48-72 h; series mostly up to 115 µM
# How it was run: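 Cytotoxicity was scored by loss of ATP-coupled luminescence (CellTiter-Glo) in HEK 293 cells. Compound treatment ran 48 or 72 hr at 37 degree Celsius, 5% CO2, 95% humidity.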
# Potency is the fitted concentration of half-maximal effect; tags give direction and shape of the fitted curve.
row,Structure (SMILES),Potency
1,c1ccc(-c2cnc(Nc3ccc4c(c3)OCCO4)c3c2CCO3)cc1,"inconclusive: 56.2 µM [inhibitor, full curve]"
2,O=C(NCCc1ccc(F)cc1)c1cc(-c2ccccc2)c2nncn2n1,"inconclusive: 50.1 µM [inhibitor, partial curve, poor fit]"
3,CCNC(=O)O[C@@H]1CO[C@H]2[C@@H]1OC[C@@H]2NC(=O)Nc1ccc(C(C)C)cc1,inactive
4,CC(=O)Nc1ncc(C(=O)N2CC[C@](C)(O)[C@@H](O)C2)s1,inactive
5,NC(=O)CNC(=O)C1=C[C@@H](NS(=O)(=O)c2cccc(C(F)(F)F)c2)[C@@H](O)[C@H](O)C1,inactive
6,Cc1cnc(CCNC(=O)c2n[nH]c(=O)c3ccccc23)n1C1CCCCC1,"inconclusive: 50.1 µM [inhibitor, partial curve, poor fit]"
7,CO[C@H]1C(=O)N(C2CCN(C(=O)c3nccc4ccccc34)CC2)[C@H]1c1ccncc1,"inconclusive: 79.4 µM [inhibitor, single point]"
8,CN1CCC(N2CCC[C@H]2c2nc(-c3ccc(OC4CCCCC4)nc3)no2)CC1,active: 28.2 µM
9,c1cc(Cn2ccc3c(N4CCOCC4)nc(-c4ccc5cn[nH]c5c4)cc32)ccn1,active: 39.8 µM
10,COc1ccc(-c2nn(-c3ccccc3C)cc2CN(C)C(C)c2ccncn2)cc1F (configuration not stated),inactive
11,Cc1oc2c(c1C(=O)NCCN1CCCC(C)C1)CN(Cc1cccc(F)c1)CC2 (configuration not stated),"inconclusive: 56.2 µM [inhibitor, partial curve, poor fit]"
12,COC(=O)C1=C(C)N=C2SC=C(CC(=O)N3CCCC3)N2C1c1ccc(C)cc1C (configuration not stated),"inconclusive: 89.1 µM [inhibitor, partial curve, poor fit]"
13,O=C1[C@H]2CN(Cc3ccc(F)cc3F)C[C@H]2C(=O)N1Cc1ccc2c(c1)OCO2,"inconclusive: 79.4 µM [inhibitor, single point]"
14,O=C(CCc1ccccc1)N1CC[C@H]2COC(=O)N2c2cc(F)ccc2C1,inactive
15,CC[C@H]1CN(C(=O)Nc2cccc(OC)c2)CC[C@H]1CC(=O)NCc1cccnc1,inactive
16,O=C(Cc1ccc(F)cc1)N1CCN(c2cc(-c3ccc(Cl)cc3)[nH]n2)CC1,active: 39.8 µM
17,CC(C)C1=NOC2(CCN(Cc3ccc(C#N)cc3)C2)C1 (configuration not stated),inactive
18,O=C(NCCOc1ccccc1)c1nc2c(o1)CCN(Cc1ccc3[nH]ccc3c1)CC2,active: 70.8 µM
19,COCCNC(=O)c1cn2cc(-c3ccc(C)cc3)sc2n1,active: 100 µM
20,COc1cccc(CCC(=O)N2CCC3(CC2)N=C(c2ccc(Cl)cc2)NO3)c1,"inconclusive: 70.8 µM [inhibitor, single point]"
21,Cc1noc(C)c1-c1cc2c(cc(C)n2C)c(-c2cccc([S+](C)(=O)[O-])c2)n1,"inconclusive: 44.7 µM [inhibitor, partial curve]"

row,Structure (SMILES),Potency
1,O=C(Nc1ccc(Cl)cc1)c1nc2c(o1)CCN(Cc1nccs1)CC2,"inconclusive: 50.1 µM [inhibitor, partial curve, poor fit]"
2,O=c1ncn(Cc2ccccc2)c2ccc(NCCOc3ccccc3)nc12,"inconclusive: 112 µM [inhibitor, partial curve, poor fit]"
3,Cn1ncc2c(C(=O)NC(C)(C)C)cc(-c3ccccc3C(F)(F)F)nc21,"inconclusive: 50.1 µM [inhibitor, partial curve, poor fit]"
4,O=C(N[C@@H]1CN(c2ncccn2)C[C@H]1CO)c1ccc2c(c1)OCO2,inactive
5,CN(C)c1ccc2c(c1)CN(C(=O)c1cnccn1)CCO2,inactive
6,Cc1cccc(C(=O)NC2CCN(c3cc(-c4ccc(F)cc4)[nH]n3)CC2)c1,"inconclusive: 89.1 µM [inhibitor, single point]"
7,CSc1cccc(NC(=O)Cn2c(-c3cnccn3)nc(C)c(C)c2=O)c1,"inconclusive: 89.1 µM [inhibitor, single point]"
8,CN1CCC(CN2CCC3(CC2)COCCN3C(=O)c2ccccc2)CC1,"inconclusive: 112 µM [inhibitor, single point]"
9,N#Cc1cccc(CN2C[C@H](O)C[C@H]2c2nc(CS(=O)(=O)c3ccc(F)cc3)no2)c1,"inconclusive: 56.2 µM [inhibitor, partial curve, poor fit]"
10,Cn1cc(-c2cc(-c3ccncc3)c3cncn3c2)cn1,"inconclusive: 28.2 µM [inhibitor, partial curve, poor fit]"
11,COc1cc(OC)cc(-c2onc(C)c2C(=O)NCc2ccccc2)c1,"inconclusive: 2.82 µM [inhibitor, full curve, poor fit]"
12,CS(=O)(=O)N1C[C@@H](COc2ccncc2)[C@H](c2ccccn2)C1,"inconclusive: 35.5 µM [inhibitor, single point]"
13,N#Cc1cccc(NC(=O)Nc2ccc(=O)n3c2[C@@H]2C[C@@H](CN(C(=O)COc4ccccc4)C2)C3)c1,"inconclusive: 89.1 µM [inhibitor, single point]"
14,CN1CCNc2cc(-c3ccc(N4CCOCC4)cc3)ncc2C1,"inconclusive: 100 µM [inhibitor, partial curve, poor fit]"
15,Fc1ccc(OCc2nnc([C@H]3CCN(Cc4cccnc4)C3)o2)cc1,"inconclusive: 100 µM [inhibitor, partial curve]"
16,CCN1c2cc(C(=O)NCc3cccc(C)c3)ccc2C(=O)N2CCCCC21 (configuration not stated),"inconclusive: 50.1 µM [inhibitor, partial curve, poor fit]"
17,COCCOc1ccnc(-c2noc([C@@H]3CCCN3Cc3ccc(Cl)cc3)n2)c1,"inconclusive: 112 µM [inhibitor, partial curve]"
18,COc1ccc(C(=O)N2C[C@@H](F)C[C@H]2C(=O)N2CCCCC2)c(OC)c1,inactive
19,O=C(C1CC1)N1CCC(C(=O)N2CCCC(c3nc4ccncc4[nH]3)C2)CC1 (configuration not stated),inactive
20,O=C(Cc1ccccn1)N1CCN(C(=O)c2nc3cccnc3n(CCc3ccccc3)c2=O)CC1,inactive
21,COc1ccc(-n2nc3n(c2=O)CCN(C(=O)c2ccccc2OC)C3)cc1,inactive

# Reference: PubChem BioAssay AID1345083 (National Center for Advancing Translational Sciences (NCATS), 2018)
